# Laboratory results from the RNAGym collection of RNA variant scans (doi:10.7554/elife.90254).
# Read counts are not given, so values of variants with three or more changes are uncertain.
# B1: LINE1-mini (parent)
# chain: GGCAGAGCUCAACACAGCGUGGCAAAGUGGCUGUGGCUAGACUGCC
# Variants of: B1
# Assay: self-cleavage, relative activity (ratio to wild type); higher = more cleavage; in vitro, sequencing; the parent is a self-cleaving ribozyme
row,Variant,self-cleavage
1,G17C C23U A24G,2.21
2,G17U A25C A41U,0.13
3,G17C C23U G35C C45G,0.01
4,G17C G36U A39C,0.03
5,G17C G22U G29C C31G C42A,0.08
6,G17C U20C G33U C42G C46A,0
7,G17C G29U C46U,0.11
8,G17C G27A G29U U32G G36A,0.04
9,G17U A26G C31A U32A A41G,0.01
10,G17C G19C G27U,0.34
11,G17U A39C C42A,0.01
12,G17C G22C A26U A41U,0.04
13,G17C C18U G19A G22C G29A G40A,0.02
14,G17C G21C U38A,0.42
15,G17C G30A C46A,0.1
16,G17C G27C C31U G36U U43A,0
17,G17C G36U A39C C45U,0.02
18,G17C A24C A25U G33A,0
19,G17C C18A C46U,0.08
20,G17C G22C A24C,0.29
21,G17C G33C A41C,0.04

row,Variant,self-cleavage
1,G17U A24G U32G,0.01
2,G17C C23A C31U,0.04
3,G17U A24G G33C C42G C46U,0
4,G17C G21U A24U,1.35
5,G17U A25G U38G C46A,0.02
6,G17C C23A G27U,2.43
7,G17C A24G G30A,0.09
8,G17C C31A C37A,0.02
9,G17C U34A G44U,0.02
10,G17C G21C U32A C45G,0.03
11,G17C U28C C31U U43A,0.13
12,G17U A24U G30A G35C,0.01
13,G17C C23U A24G C46G,0.05
14,G17U A25C G44C,0.01
15,G17C A26U U28A G35U,0.04
16,G17A U28G G29A U34C G40C,0.05
17,G17C G40A U43A G44U,0.05
18,G17C G21C A25G U28A,0.09
19,G17C G21C G22A U32C G33A,0.09
20,G17C C18A C42U,0.19
21,G17U C18A A41G,0.01

row,Variant,self-cleavage
1,G17C G30C G36A,0.03
2,G17C G40U A41U,0.03
3,G17C G30C A41U,0.05
4,G17C C18G G35A G44U,0.02
5,G17C G19A A24C G36U,0.07
6,G17U A39U C45A,0.05
7,G17C G30U C31U,0.03
8,G17C G30U C31A,0.13
9,G17C C23A C37U,0.04
10,G17U A25U C37G,0.06
11,G17C G30A G33A,0.09
12,G17U A26C G40C C46A,0.02
13,G17C C18A U20G,0.04
14,G17C G33A C37A A41G,0.07
15,G17C U20A C45U,0.15
16,G17C A25U C31A,0.61
17,G17A U32G U43A,0.01
18,G17U A24C G35C,0.06
19,G17U A26U C31A U32C,0.08
20,G17C C23A A26C G27U G35C C46G,0.02
21,G17C U20G G21U,0.56

row,Variant,self-cleavage
1,G17C G40U C42A,0.05
2,G17C C23A G33U,0.04
3,G17C G19U C23A A26C,0.45
4,G17C G33C C37G,0.03
5,G17C U38G C45A,0.04
6,G17C G27A G35C,0.01
7,G17C G21A G40C,0.03
8,G17C A24G G30A G44U,0.01
9,G17C C23G A41C C46G,0.03
10,G17C G21C A41G,0.2
11,G17C G21U G30A C46U,0.64
12,G17C G21C G27A G30C C31A G33U,0.04
13,G17C U34C A41C,0.09
14,G17C C18U A25C U38C,0
15,G17C C23A C31A C45A,0.13
16,G17C A24C G29U A39U G44U,0.02
17,G17C G19U U20C G27A A39C,0.16
18,G17C G40C C46U,0.02
19,G17U A26C U43C,0.03
20,G17U A25G C42G C46G,0.01
